Measured values from PubChem BioAssay AID540267 (National Center for Advancing Translational Sciences (NCATS), 2011).
Among all 340,000 compounds or so, about 530 (0.16%) were called active. Inconclusive means that the source gave no clear call. Such entries were picked first, then a sample of the others. Cut-off read from the data, not from the text of the source: active = activity change below about -80%; inconclusive = between about -30% and that limit; inactive = weaker than that. Some compounds were tested as several samples or in several runs, with calls that do not always agree.

Assay: Small Molecules that selectively kill Giardia lamblia: qHTS;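 note: parasites exposed to compound for two days anaerobically before the ATP read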
Conditions: Giardia lamblia trophozoite viability; at 7.66 µM; hits give low values
Method in brief: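 Compounds were tested on trophozoites seeded at 100 cells/well and held 48 hrs at 37 deg C anaerobically. An ATP-based luminescent kit measured the remaining live cells.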
% is set by controls: 0 for no effect and ±100 for the full control effect.

Row | SMILES | activity change
1 | COc1ccccc1NC(=O)CSc1ccc(-c2ccco2)nn1 | inactive: 10.4%
2 | CCOC(=O)c1cc(-c2ccccc2)nc2c1c(C)nn2-c1ccccn1 | inactive: 1.86%
3 | COc1cc(Br)c(/C=C/c2ccc3cccc(O)c3n2)cc1OC | inconclusive: -43.4% [inhibitor]
4 | CCOc1ccc(/C=C/C(=O)Oc2ccc(OC)cc2)cc1 | inactive: 3.21%
5 | O=C(c1ccccc1-n1cccn1)N1CCc2c([nH]c3ccccc23)C1c1ccccn1 (stereo unspecified) | inconclusive: -31.6% [inhibitor]
6 | Cc1ccc(NS(=O)(=O)c2ccc(OCC(=O)NCc3ccco3)cc2)cc1 | inconclusive: -36.6% [inhibitor]
7 | CN(Cc1ccccc1)C(=O)c1ccc([N+](=O)[O-])o1 | active: -87%
8 | CCC(C)Nc1ccc(NC(C)CC)cc1 (stereo unspecified) | active: -101%
9 | O=C1CC(c2ccc(S(=O)(=O)NCc3ccncc3)cc2)CN1 (stereo unspecified) | inconclusive: -33.3% [inhibitor]
10 | Cc1ccc(NC2Nc3cc(C)nn3S2)c(C)c1 (stereo unspecified) | inactive: -9.56%
11 | Cc1ccc(C(C)C)c(OCCNCCc2ccccc2)c1 | inactive: -6.33%
12 | Cc1c(OCC(=O)N2CCC(C(N)=O)CC2)ccc2c3c(c(=O)oc12)CCC3 | inconclusive: -32.3% [inhibitor]
13 | CCOC(=O)C(=O)c1csc(NC(=O)COc2ccc(N(C)S(=O)(=O)c3ccc(F)cc3)cc2)n1 | inactive: -15.4%
14 | CCOc1ccc2nc3cc(NCc4ccc(OC)cc4)ccc3c(N)c2c1 | inactive: 10.3%
15 | CC12CN3CC(C)(CN(C1)C3c1ccc([N+](=O)[O-])o1)C2 (stereo unspecified) | inconclusive: -71.8% [inhibitor]
16 | CCN(CC)c1ccc(C2NC(=O)c3ccccc3N2)cc1 (stereo unspecified) | active: -86.4%
17 | CC1CNC(=S)N(c2ccc(F)cc2)C1=O (stereo unspecified) | inactive: -10.9%
18 | Cc1c(C#N)c(O)n(CCO)c(=O)c1N=Nc1ccc(S(N)(=O)=O)cc1 | inactive: -8.65%
19 | Nc1ccc(SC(F)(F)F)cc1C(=O)c1ccccc1 | inactive: 5.44%
20 | COc1ccc(C(=O)N[C@H](C(=O)NCCCn2nc(C)cc2C)C(C)C)cc1 | inactive: -4.4%
21 | CCC(C)(C)NC(=O)C(c1ccncc1)N(C(=O)c1sc(C)nc1C)c1ccc(C)cc1 (stereo unspecified) | inconclusive: -33% [inhibitor]

Row | SMILES | activity change
22 | COc1ccc2c(C(=O)NCCCCO)c(-c3ccc(S(C)(=O)=O)cc3)sc2c1 | inconclusive: -33.3% [inhibitor]
23 | Cn1nc([N+](=O)[O-])nc1Sc1cccc2cccnc12 | inconclusive: -57.7% [inhibitor]
24 | CC(Sc1nnc(N)s1)C(=O)NCc1ccc2c(c1)OCO2 (stereo unspecified) | inactive: 14.4%
25 | CC(=O)c1c(C)n([O-])c2cc(C)ccc2[n+]1=O | active: -104%
26 | CCOc1cc(CNCCCN2CCOCC2)cc(Br)c1OCC(=O)Nc1cccc(C(F)(F)F)c1 | inconclusive: -30.6% [inhibitor]
27 | O=C(Nc1ccc(-c2nc3cccnc3s2)cc1)C1CCCO1 (stereo unspecified) | inconclusive: -44.5% [inhibitor]
28 | Cc1csc(CN(C)C(=O)C2CCC(=O)N(CCN(C)C)C2)n1 (stereo unspecified) | inconclusive: -31.8% [inhibitor]
29 | COc1ccc(/C=C/C(=O)Nc2cccc(F)c2)cc1S(=O)(=O)N1CCOCC1 | inactive: -6.89%
30 | CN(CCc1ccccn1)C(=O)CCC1CCCN(C(=O)NC2CCCCC2)C1 (stereo unspecified) | inconclusive: -32.1% [inhibitor]
31 | O=C(C1CCCCC1)N1CCN(c2ccnc3cc(Cl)ccc23)CC1 | inactive: 11.6%
32 | O=C(Nc1nc2ccccc2s1)c1ccc(OCC2CCCO2)cc1 (stereo unspecified) | inconclusive: -47.1% [inhibitor]
33 | Cc1ccc(C(=O)Nc2ncc(C)s2)s1 | inconclusive: -57.6% [inhibitor]
34 | COc1ccc(-n2ccnc2CN2CCCC(CO)(Cc3cccc(OC)c3)C2)cc1 (stereo unspecified) | inactive: -15.3%
35 | CNc1nc(Oc2ccc(=O)n(C)n2)nc(N2CCOCC2)n1 | inconclusive: -33.1% [inhibitor]
36 | C(=C\c1ccccn1)/c1ccncc1 | inactive: 6.41%
37 | O=[N+]([O-])c1nn(-c2ccccc2)[n+]([O-])c1N1CCN(c2ccccc2F)CC1 | active: -89.3%
38 | CCC1S/C(=N/N=C/c2ccco2)N(Cc2ccccc2C)C1=O (stereo unspecified) | inconclusive: -37.5% [inhibitor]
39 | Cc1cc(NC(=O)CN2C(=O)NC(C)(CCc3ccccc3)C2=O)no1 (stereo unspecified) | inconclusive: -37.7% [inhibitor]
40 | Cc1ccc(SCc2[nH]nc3c2C(c2ccc(C)o2)C(C#N)=C(N)O3)cc1 (stereo unspecified) | inactive: -6.69%
41 | COc1ccc(-n2nc([N+](=O)[O-])c(=NCCC3=CCCCC3)n2O)cc1 | active: -90.7%
42 | COc1ccc(S(=O)(=O)Nc2ccccc2C(=O)N2CCCC2)cc1C | inconclusive: -31.2% [inhibitor]

Row | SMILES | activity change
43 | COC(=O)c1sccc1NC(=O)c1ccc(C#N)cc1 | inactive: -21.8%
44 | CC(=O)Oc1ccc2c(=O)c(-c3ccccc3)c(C)oc2c1 | inconclusive: -43.1% [inhibitor]
45 | O=C(COc1cccnc1[N+](=O)[O-])NCc1ccco1 | inconclusive: -71.4% [inhibitor]
46 | O=C(/C=C/c1ccc(Cl)cc1)Nc1ccccc1N1CCOCC1 | inactive: 0.381%
47 | Cc1cc(C)cc(OCC(=O)OCC(=O)N(C)CC(=O)Nc2ccc(F)cc2)c1 | inactive: -5.1%
48 | COc1ccc(C2CC(c3ccc4ccccc4c3)=NN2C(=O)CNC2CCCCC2)cc1 (stereo unspecified) | inconclusive: -31.3% [inhibitor]
49 | CC(=O)Nc1ccn(C2OC(C(COC(C)=O)NC(=O)C(C)NC(=O)OC(C)(C)C)C(OC(C)=O)C2OC(C)=O)c(=O)n1 (stereo unspecified) | inconclusive: -30.9% [inhibitor]
50 | CC(C)C[C@@H](CN)NC(=O)c1nc[nH]c1C(=O)N[C@@H](Cc1ccccc1)C(=O)CNC[C@H](C)NC(=O)c1nc[nH]c1C(=O)N[C@@H](C)C(=O)O | inconclusive: -41.6% [inhibitor]
51 | COc1cccc(Cn2c(-c3nonc3N)nc3ccccc32)c1 | inconclusive: -32.2% [inhibitor]
52 | Cc1cc(C)cc(NC(=O)/C=C/c2ccc([N+](=O)[O-])s2)c1 | inconclusive: -46.8% [inhibitor]
53 | C[C@H](NC(=O)c1[nH]cnc1C(=O)Nc1ccccc1)C(=O)OC(C)(C)C | inactive: -19.6%
54 | COc1ccc(-c2[nH]c(-c3ccc(C)cc3)nc2SCC(=O)NC2CCCC2)cc1 | inactive: -0.803%
55 | O=C(NCc1ccco1)c1nn2c(C(F)(F)F)cc(-c3cccs3)nc2c1Cl | inactive: -18.4%
56 | COc1ccccc1/C=C/C=N/n1c(-c2ccccn2)n[nH]c1=S | inactive: -1.18%
57 | Cc1ccc(CNC(=O)CSc2ccsc2[N+](=O)[O-])cc1 | active: -88%
58 | COc1cc2c(-c3cc(F)cc(F)c3)c(-c3ccsc3)oc(=O)c2cc1OC | inactive: 3.16%
59 | CC(Nc1nc(=S)nc(Nc2ccc(F)cc2)[nH]1)c1ccccc1 (stereo unspecified) | inactive: 18.8%
60 | CC1CC(NNC(=O)c2ccccc2)=Nc2ccccc2N1C (stereo unspecified) | inactive: 6.37%
61 | N#Cc1ccc(CN2CCN(C(=O)CCNS(=O)(=O)c3ccc(F)c(F)c3)CC2)cc1 | inconclusive: -32.5% [inhibitor]
62 | CN(C(=O)COC(=O)C1COc2ccccc2O1)c1c(N)n(Cc2ccccc2)c(=O)[nH]c1=O (stereo unspecified) | inactive: -17.7%
63 | CCCN(C(=O)c1cc(S(=O)(=O)N2CCCCC2)ccc1Cl)C1CCS(=O)(=O)C1 (stereo unspecified) | inactive: -12.2%

Row | SMILES | activity change
64 | COc1ccc(-c2nn(-c3ccccc3)cc2C(=O)NCC(c2cccs2)N2CCOCC2)cc1 (stereo unspecified) | inconclusive: -37.3% [inhibitor]
65 | COc1cc2c(c3oc(-c4ccccc4)cc(=O)c13)C=CC(C)(C)O2 | inconclusive: -46.4% [inhibitor]
66 | COc1ccc(-c2nc(Cn3c(SCc4ccc(F)cc4)nc4ccncc43)c(C)o2)cc1OC | inactive: -11.4%
67 | O=C(N/N=C/C1CC=CCC1)c1ccc(Cl)cc1O (stereo unspecified) | inactive: -11.1%
68 | COc1ccc(CCNC(=O)c2cc(CC(C)C)on2)cc1OC | inconclusive: -42% [inhibitor]
69 | CN1CCN(c2ccc(NC(=O)c3cc(Cl)c4c(c3)OCCO4)cc2)CC1 | inconclusive: -32.7% [inhibitor]
70 | Cc1ccc(SCCOCCN2CCc3ccccc3C2)cc1 | inconclusive: -34.9% [inhibitor]
71 | S=c1nc(C2COc3ccccc3O2)[nH][nH]1 (stereo unspecified) | inactive: 20.7%
72 | CCCNC(=S)Nc1ccc(F)cc1F | inactive: 3.34%
73 | O=C(Nc1nc2ccccc2s1)c1ccc2c(c1)OCO2 | inconclusive: -34.7% [inhibitor]
74 | Cn1c(-c2ccccc2)cc2onc(-c3ccccc3)c2c1=O | inconclusive: -46.4% [inhibitor]
75 | CC(C)CC(=O)Nc1c2c(nn1-c1ccc(F)cc1)CS(=O)C2 (stereo unspecified) | inconclusive: -32.1% [inhibitor]
76 | CC(C)(C)C(=O)Nc1ccc(/C=C/C(=O)c2ccco2)cc1 | inconclusive: -39.2% [inhibitor]
77 | Fc1ccc(-c2nnc(NC3=NCCCCC3)o2)cc1 | inconclusive: -65.9% [inhibitor]
78 | COc1ccc(-c2cccc(NS(=O)(=O)c3cccc([N+](=O)[O-])c3)c2)nn1 | inconclusive: -37.9% [inhibitor]
79 | CSC(=NC#N)N1CCN(C(c2ccccc2)c2ccccc2)CC1 | inconclusive: -39.6% [inhibitor]
80 | O=C(N/N=C/c1ccccn1)c1cccc(NC(=O)c2ccccc2Cl)c1 | inconclusive: -31.1% [inhibitor]
81 | Cc1ccc(N=c2c([N+](=O)[O-])nn(-c3ccc(Cl)cc3)n2O)cc1C | inconclusive: -44.5% [inhibitor]
